Data reported in the RNAGym collection of RNA variant scans (doi:10.1073/pnas.2313332121).
This sample is rich in variants without activity.

B1: TPR 5TU (parent)
chain: GGAUCUUCUCGAUCUAACAAAAAAGACAAAUCUGCCACAAAGCUUGAGAGCAUCUUCGGAUGCAGAGGCGGCAGCCUUCGGUGGCGCGAUAGCGCCAACGUUCUCAACUAUGACACGCAAAACGCGUGCUCCGUUGAAUGGAGUUUAUCAUG

Variants of: B1
Assay: polymerase ribozyme fitness, log enrichment relative to wild type (log ratio); higher = more active; in vitro selection for triplet polymerase activity
Procedure, shortened: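 The heterodimeric triplet polymerase ribozyme's subunits were each mutagenized into PCR-built libraries and transcribed. Every library was selected once, in triplicate, by annealing with a biotinylated primer, the partner subunit and triplets, incubating frozen at −7 °C, gel-excising extended constructs, capturing on streptavidin beads and running RT-PCR. Input and output libraries were Illumina-sequenced, with genotypes kept only at ≥10 input reads and ≥1 read per output. Fitness, from inverse-variance-weighted replicate averages, is the base-2 logarithm of genotype enrichment over wild-type enrichment.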

Variant	polymerase ribozyme fitness (log ratio)
A19C A49G A66C C105U U144C	≤ -4.2
C18A A21G U33G C36A G84A G141C U144A C149U	≤ -4.2
A19C C35U C95U	0.438
A19C C54U C93A C103G	≤ -4.2
A19C C54G C93A	≤ -4.2
A19C A23U A37U C43U A52U G140C	≤ -4.2
C18G U33G U101G A122G	≤ -4.2
C18A U56A C75A G83A	≤ -4.2
A19C G70A C99A	≤ -4.2
C18G C36A C103U U134C G141U	≤ -4.2
C18G A24U A40U C87A A97C U139G U144C	≤ -4.2
C18G A41U A47C A49G G86A U104G	-3.44
A19C A21U U55A C76G G88U G128U	≤ -4.2
C18U U45A U56A G70A C85U	≤ -4.2
C18G C57A U134G U145A	-3.18
C18U A24C G84U A106G U109A A121U C131A G141A U145A	≤ -4.2
C18U A21U G42A G58C C95U C116U U145C	≤ -4.2
C18A G50C G81U C93A C103G	≤ -4.2
C18G A28G A52G G71A G92A U111C A122C A147U	≤ -4.2
C18G A52G C87U	-1.15
C18G C27U A40U C51U A52C C57G G88U C105U	≤ -4.2

Variant	polymerase ribozyme fitness (log ratio)
C18G G68C C116U G143C	≤ -4.2
C18G A26U A47U G67C C105G U146A C149G	≤ -4.2
C18G G50U G88A	-4.08
C18G A30U G50A C54U G67C G94A U111C G124C G141A G152A	≤ -4.2
C18G A19U A20U C36U G68A C93G C108G	≤ -4.2
C18U A19G	-1.03
C18G U146C	-0.0606
C18G U33G G68A G83A U139C	≤ -4.2
A19C A47C G86C U90G	≤ -4.2
C18U A40G C57G C95U	-3.91
C18G C95U	0.206
C18A A20U G71C G92C G143U U144G	≤ -4.2
A19C A21C A26U A52G U78A G92A G152C	≤ -4.2
A19C G65A G83C	-1.84
C18U G84A U102A C123G	-2.76
A19C A22U C35A A106G	-3.28
C18G A21C G68U C96A C114A	≤ -4.2
A19C A52G G92C C96A A147C	-3.53
C18A A22G G81U C87G C108G A120G	≤ -4.2
C18G A29G C57A C93U U104A U146G	≤ -4.2
C18G C51U U53G A60U C85A G94U A98U C99G	≤ -4.2

Variant	polymerase ribozyme fitness (log ratio)
C18G A24G G50A U56A G88U C93U G133U U148A	≤ -4.2
A19C G58C C87G C132A	≤ -4.2
C18A C85A G112C C116U	≤ -4.2
A19C C51U G92U C93G A113G G126U A142G G143C	≤ -4.2
A19C A24U A37U C54U C76U C93G A113U	≤ -4.2
C18A A22U G50A C85U U109G	≤ -4.2
C18U A23C C85A G133C	≤ -4.2
C18U A26C A39U A49C C57U	≤ -4.2
C18U A49C C87G G100A	≤ -4.2
C18A A24U C51U U77C G84U C114A U135G U145C	≤ -4.2
C18G U56A C93A U134G U144A	≤ -4.2
C18U A24U A39G G80C A120C G126A G136C U145G	≤ -4.2
C18U A24G A37C	≤ -4.2
A19C A110C	≤ -4.2
A19C C43U C76A G81C A91G A106U A121C G136U A142G	≤ -4.2
C18G G92U U104C U109C U139A	≤ -4.2
C18G G25C U33C C108G	-3.95
A19C C32U A52U G80C C99G C149G	≤ -4.2
C18U U44A G50A A52U G74A A91U C105G A106G C129G	≤ -4.2
A19C A21U U101A	0.427
C18G A49U A119G	-1.83

Variant	polymerase ribozyme fitness (log ratio)
A19C G88C	-3.96
C18U U31G A37C C54U A91C U134C U146C	≤ -4.2
A19C G71A G92C C99A G117A G140U	≤ -4.2
C18U A30G A142U U151G	≤ -4.2
C18G A24G C57U C93G G94C G117C	≤ -4.2
C18G A21C A22U A23G C35A C38A U61A G92U U102G C116G C118U A142C A150U	≤ -4.2
C18U A26U A29U G34U U55A A60C C76A G152U	≤ -4.2
C18U A24G G25U G48A G50C C51A C76A G83A C85A U102G G143A	≤ -4.2
C18U A22C A40C G42A C129G	≤ -4.2
C18A G86U C103U U145A	-2.81
C18G A20U C38U G50A G86A C105A C116A A121U G141C	≤ -4.2
A19C A29U C43A A52C G94C	≤ -4.2
C18U G140C	-4.17
C18U A22G A60G G65A C96U G140U	≤ -4.2
A19C A73U C87U U90G C99U G126U C131U A142G	≤ -4.2
A19C A22U G34A G50A U56A G59A C93A C123G U127C A138G U144A	≤ -4.2
A19C A24G C72A C125A	≤ -4.2
C18A G58A G86U A119U	-2.06
C18U A49G G50U A66C U78G C85G G88A A119G C125A	≤ -4.2
C18G A28U G48C A49C G84U C108G C116G	≤ -4.2
